Data: the supplement of paper PMC10126150
Values marked as one replicate rest on one cluster of the flow cell; about a third of the high ones do not repeat.

Tested on: ATP
Experiment: switch fluorescence ratio, 500 uM ATP over buffer (Cy3 cluster intensity, sum of 5 cycles each) (fold (ratio)); higher = stronger signal-on switching upon ATP binding; sequences stand for … in TCGTCGGCAGCGTCAGATGTGTATAAGAGACAGTTTTTTTTTTTTTTTTTTTTTTTTT…TC
Details: aptamer strand: ATP DNA aptamer (quencher-CACCTGGGGGAGTATTGCGGAGGAAGG + anchor), 100 nM annealed; ATP concentration: 500 uM; one replicate
Method in brief: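 Exposure to 500 uM ATP lasted 15 min at 22 °C before imaging, and a selection-buffer image was taken beforehand, for Cy3-labelled switching-strand clusters on a modified Illumina MiSeq flow-cell annealed to 100 nM quencher-labelled ATP aptamer. Five buffer/ATP cycles were run with NaOH stripping and re-annealing between them. The fluorescence ratio per cluster is summed target-cycle over summed buffer-cycle Cy3 intensity, averaged per switch-domain sequence. Clusters outside 100-1000 RFU were excluded.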

| Sequence | switch fluorescence ratio |
| --- | --- |
| GAGAAGGAGA | 1.06 |
| AGCGGCGTTC | 1 |
| CGCCCACGAT | 0.986 |
| GAGGCGATTA | 1.24 |
| GCGAGCGAT | 1.07 |
| GATTTATACA | 1.03 |
| TAAAGCGTTA | 1.01 |
| GGGGCCTCT | 1.03 |
| CTGTCGAGT | 0.992 |
| GGATTATTGT | 0.959 |
| AAGTGCGCTG | 1.01 |
| CCCTTCGAAT | 1.25 |
| TCTGAGTGTT | 0.981 |
| GATCTGAAAA | 0.986 |
| GCCGCTGGCG | 1.01 |
| TGGATCCACA | 1.01 |
| TGCTGGAATA | 0.983 |
| GACATTCCCC | 1.18 |
| ACTGCAACTC | 1.6 |
| GACTTTTTAT | 0.959 |
| TACTTTGTGC | 1.02 |
| CGTCATCTTT | 1.1 |
| ACCTCGGATC | 1.07 |
| TCAAGTACCT | 1.41 |
| ATTGGTTGAT | 0.988 |
| ATCATTATCG | 0.976 |

| Sequence | switch fluorescence ratio |
| --- | --- |
| CCTTTAATCA | 0.994 |
| GTTTACTTCA | 1.03 |
| CAGGGATGGT | 1.04 |
| AGTCGTCCGG | 0.977 |
| CAGGCTTAAT | 1.01 |
| TTACCCTGCT | 0.996 |
| TTGAAAAGAG | 1.01 |
| TTCACATGAT | 1.02 |
| GTCTCGGACC | 0.976 |
| CACTTCAACT | 1.04 |
| AGCGGGGAGA | 1.07 |
| ATAGGTCACA | 1.03 |
| CCGGGGACT | 1.43 |
| GATGGGCCTA | 1.01 |
| AGAGGTTCTT | 0.999 |
| AATAGATGTA | 0.99 |
| AAAAGTTTTA | 0.996 |
| ATAAAGCCAG | 0.935 |
| GGCTTGTGCG | 0.989 |
| CATATCCAAC | 1.05 |
| TGCTCACTTT | 0.994 |
| GTTTATCAGT | 0.977 |
| CGGTGGTACG | 0.952 |
| AGTTTTCCG | 0.972 |
| CTTTCAGGG | 0.994 |
| CGGGGTCTTG | 0.972 |

| Sequence | switch fluorescence ratio |
| --- | --- |
| CGTCCCGTGA | 1.08 |
| ATCCAGTAAT | 1.07 |
| AGTTGAGGAT | 0.993 |
| CGCACATTAA | 1.34 |
| GAGAGCGGCA | 1.04 |
| TGGCTTACTG | 1.05 |
| GGCGGCAGG | 1.03 |
| AGGCGCGACG | 1.02 |
| CCATAGGTGG | 1.02 |
| TCATGAATAC | 1.22 |
| TCTAGATCTG | 1 |
| ATACCAGCTA | 1.07 |
| CCCTCGAAGC | 1.2 |
| TCCTCTTTCA | 1.04 |
| TTTAATATAC | 1.07 |
| ACAGATCTTG | 0.993 |
| GACACGTTAC | 1.86 |
| CATGACACGT | 1.01 |
| TTTGAATCCA | 1.03 |
| TGAGGGAATG | 1.02 |
| ATCATGTTTA | 0.971 |
| AAGCACGTTA | 1.22 |
| CCAGCGGATT | 1.01 |
| AGGATTGGGC | 0.973 |
| AGTATGGGA | 0.969 |
| GAATTGACTC | 0.972 |

| Sequence | switch fluorescence ratio |
| --- | --- |
| ACAATCGAAT | 1.04 |
| ACTAAAGCGG | 1.04 |
| CGTTTAGACA | 1.06 |
| AGTAACTGAT | 1.03 |
| GTTAGGATTG | 0.971 |
| TGACCTTTGC | 1.05 |
| TCATTTTATT | 0.977 |
| ATAAGGGTGA | 0.959 |
| TCAATTTACA | 1.1 |
| GAAGGAATTT | 1.28 |
| AGTCTCTTAG | 0.998 |
| AAAACGTCGG | 1.03 |
| CTTTAATAAC | 1.05 |
| TCCCTTT | 0.954 |
| TCTGAAAGG | 0.965 |
| ACACTAGCGC | 1.11 |
| ATGTAGCGCG | 0.977 |
| GGCGACTGGG | 0.923 |
| TGCGTCTTAA | 1.04 |
| GTGAGTGTGC | 0.902 |
| ACGCCCCACT | 1.26 |
| ACGATACTAT | 1.37 |
| TGAGGCTTGC | 0.933 |
| TAAGCAGAAG | 1.06 |
| GAACTTATA | 1.01 |
| GCTCATCCGG | 1.4 |

| Sequence | switch fluorescence ratio |
| --- | --- |
| ATCCGGTA | 0.971 |
| TTTGATGATG | 0.971 |
| AAGTAAGTGT | 1.06 |
| GTTCGGGAGA | 0.999 |
| TTCCCGAGAA | 1.02 |
| CCGTTAGTG | 1.01 |
| ACCAATGTAG | 0.986 |
| GCAGTTATAT | 1 |
| TGGAGACAGG | 1.1 |
| GGCAGAATGC | 0.993 |
| ATCGTCGCGA | 0.995 |
| TCAAGGTTAT | 0.975 |
| GGTCACAATG | 1.03 |
| ATGTGTCC | 0.976 |
| CGATTGATTT | 0.998 |
| TCTTAAATTA | 0.967 |
| CGTAGGAAAT | 1.45 |
| TAAGGCAGGG | 0.975 |
| TTATGCGGGT | 1.03 |
| ACCCAATCAC | 1.88 |
| CGAGTTCGTG | 0.962 |
| TGGACCTTCG | 1.19 |
| TAAGACCGAC | 1.6 |
| TACACACTGG | 1.11 |
| AGTGATGGTG | 0.959 |
| CCGCTATTCA | 3.43 |

| Sequence | switch fluorescence ratio |
| --- | --- |
| TCATGAGC | 0.991 |
| ATAAATACAC | 1.05 |
| ATTCACGTTG | 1.05 |
| TTTAACAGGA | 1.03 |
| GACGTCACAA | 1.06 |
| GGTAATCGCA | 1.03 |
| TCTGTTCAAT | 0.999 |
| AGATTCGTGT | 1.01 |
| CAGCCCTCT | 1.14 |
| TGATCAGACT | 1 |
| CCGGGTCTCC | 1.2 |
| ATCCGATTTT | 0.976 |
| TCGGGTATCC | 1.09 |
| TCTCTATTG | 0.997 |
| GGAGGGTATC | 1.11 |
| TTCCAGGGGC | 1.02 |
| TGTCGGCTTA | 1.04 |
| ACGCGTCAGT | 0.983 |
| TGACGCTTAG | 1.14 |
| CCGTAGTTAT | 3.21 |
| AACTTAGGTT | 1.01 |
| GAATAGTATG | 0.96 |
| CTAATAAAAT | 1.07 |
| TGCTTAGGGG | 0.971 |
| GGGTCAAGTA | 1.03 |
| AGTGGCACAC | 0.994 |

| Sequence | switch fluorescence ratio |
| --- | --- |
| TTCATAAGA | 1.02 |
| GACGATCTTT | 1.04 |
| AGGACTCCGG | 0.999 |
| AGCTCAAAAC | 1 |
| AAATACATAC | 1.5 |
| ACACGGTCGG | 0.99 |
| CAGGACTTCA | 1.01 |
| AATTTAATCG | 0.984 |
| ACCCCTATAG | 1.18 |
| AAGACGGTAC | 1.48 |
| GCTAGCCCTT | 1.02 |
| ATAGCATCGG | 1 |
| TCTGGCACTA | 1.05 |
| ACACTGTAAA | 1 |
| ATTAATAACT | 1.02 |
| CTAGCCGGAC | 1 |
| TGCCGGGTCC | 0.98 |
| CAGTAAGGCC | 0.992 |
| CTCTAGCATG | 1.29 |
| GGGACACCTT | 1.07 |
| GGAGAACGTA | 1.04 |
| GATATCCTCT | 0.984 |
| ATATATAATT | 1.02 |
| GTTCGCTTAT | 1.11 |
| TTATGGGTT | 1.01 |
| TTGTAGACAC | 1.28 |

| Sequence | switch fluorescence ratio |
| --- | --- |
| GCAATCTACG | 1.58 |
| CCTAATAGTG | 0.996 |
| TACCGTAAGC | 1.56 |
| GGCAAAGTTT | 1.02 |
| TGCGATTTCC | 1.08 |
| CGTTGAGACA | 1 |
| CGACTTGCAG | 0.958 |
| ATAAGGCACG | 1.12 |
| CATATATCTC | 1.01 |
| CTTAATCGGG | 0.956 |
| TTGACGCTTG | 1.03 |
| GCGCCAAGCC | 0.99 |
| TGCAGGTAGC | 0.941 |
| GCGCGCATTA | 0.996 |
| GGAGGCGGGT | 0.985 |
| CGTGGACCCA | 0.984 |
| CTATACCTGG | 0.988 |
| TGAGGCAATC | 4.16 |
| TTCGCCTGGG | 0.954 |
